Data from PubChem BioAssay AID1845202 (Molecular Pharmacology Branch, DTP, NCI, 2023).
Some entries of the source have several records that differ or are many. They are shown here; other results are not. An entry can have further records. The values listed for one entry repeat one measurement across runs, samples, wells, individuals or studies.

Test system: DMS 114 tumor spheroids, viability % test/control
Experiment: Anticancer human tumor DMS 114 cell line growth inhibition;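 further: luminescence used as a proxy for viable cells; spheroids exposed to compounds for 7 days before read-out; 100% = DMSO vehicle control viability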
Conditions: stronger effect = lower value, spheroids with HUVEC and MSC
Source text: Multicellular complex tumor spheroid response to DNA repair inhibitors in combination with DNA-damaging drugs
This study explores the anticancer activities of DNA-damaging drugs and inhibitors of DNA damage repair, both as single agents and in combinations. Complex tumor spheroids comprised of malignant cells, endothelial cells and mesenchymal stem cells served as an in vitro model for human solid tumors. This model system incorporates physiologically relevant features and patient-derived or established malignant cell lines with clinically relevant genetic alterations from many tumor types. Twenty-six patient-derived or established malignant cell lines were evaluated representing sarcoma, melanoma, small cell lung cancer (SCLC), non-small cell lung cancer (NSCLC), as well as bladder, ovarian and pancreatic cancers. The concentration ranges selected for each drug and investigational agent were based upon clinically achievable concentrations if the clinical Cmax of the agent was known.
Compounds. […] If the clinical Cmax for an agent had not been determined, the highest concentration tested was 10 microM. […]

SMILES | viability, T/C (compound alone 0.00949 µM) | viability, T/C (compound alone 100 µM)
CC[C@@]1(O)C(=O)OCc2c1cc1n(c2=O)Cc2cc3c(CN(C)C)c(O)ccc3nc2-1 | 98.5, 90.3, 109, 93.3, 93, 85.2, 90.5, 92.7, 90.4, 80.9% | –
Cn1nnc2c(C(N)=O)ncn2c1=O | – | 117, 97.3, 93.2, 108, 106, 91.9, 99.7, 96.6, 92.8, 94.4%
